About 16,000 (7.3%) of roughly 220,000 compounds were called active. The inconclusive results got no clear call from the source; some entries with a clear call stand among them for comparison. The call rests on the fitted dose curve; in most records, active means well fitted inhibition curve with a large enough effect (not every such curve was filed as active); inconclusive means small, poorly fitted or top-dose-only effect, or another doubt; inactive means no such curve, though single readings can be large or run the other way. Potencies of inconclusive entries are left out as doubtful fits.
The molecules below were run against Aldehyde dehydrogenase 1A1 (Homo sapiens) (UniProt P00352) (assay: qHTS Assay for Inhibitors of Aldehyde Dehydrogenase 1 (ALDH1A1)). Settings: Purified ALDH1A1, NADH fluorescence, propionaldehyde substrate; series mostly up to 75.3 µM; activity, negative = inhibition: at the top concentration.
Potency means the concentration at half of the fitted maximal effect; tags describe the fitted curve by direction and shape.
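Wherever activity, negative = inhibition is given: plate controls were no enzyme wells and a reference inhibitor.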

Sequence of UniProt P00352 (P00352 whole entry, looked up): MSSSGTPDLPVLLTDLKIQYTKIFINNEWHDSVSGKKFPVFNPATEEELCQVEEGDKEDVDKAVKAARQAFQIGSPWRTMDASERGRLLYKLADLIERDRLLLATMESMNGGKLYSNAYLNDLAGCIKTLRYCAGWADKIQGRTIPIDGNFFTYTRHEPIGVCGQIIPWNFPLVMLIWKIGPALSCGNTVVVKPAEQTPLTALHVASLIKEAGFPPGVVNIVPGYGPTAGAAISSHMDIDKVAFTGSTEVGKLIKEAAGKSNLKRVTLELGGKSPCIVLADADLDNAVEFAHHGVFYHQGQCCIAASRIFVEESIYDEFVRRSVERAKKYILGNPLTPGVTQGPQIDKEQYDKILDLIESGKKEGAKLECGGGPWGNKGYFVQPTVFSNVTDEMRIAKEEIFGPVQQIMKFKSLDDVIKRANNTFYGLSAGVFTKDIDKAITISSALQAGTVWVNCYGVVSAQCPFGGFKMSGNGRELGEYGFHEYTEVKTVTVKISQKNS

| Compound | Potency | activity, negative = inhibition |
| --- | --- | --- |
| COc1ccccc1CNC(=O)c1c(N)n(CCCN2CCOCC2)c2nc3ccccc3nc12 | inconclusive [inhibitor, partial curve] |  |
| COc1ccc(C2NC(=S)NC(C)=C2C(=O)c2ccccc2)cc1OC (stereo unspecified) | active: 11.2 µM |  |
| Cc1cc(=O)[nH]c(SCC(=O)C23CC4CC(CC(C4)C2)C3)c1C#N | active: 3.16 µM |  |
| CCCCOC(=O)CN1C(=O)c2ccc(C(=O)OCCCC)cc2C1=O | inconclusive [inhibitor, single point] |  |
| COc1ccc(-n2cnc3c(sc4nccc(N(C)C)c43)c2=O)cc1 | inconclusive [inhibitor, single point] |  |
| O=C(NC(=S)Nc1nc2c(s1)CSc1ccccc1-2)c1ccccc1 | inconclusive [inhibitor, single point] |  |
| O=C(N/N=C/C=C/c1ccco1)c1ccccc1Cl | inconclusive [inhibitor, single point] |  |
| O=c1ccc2cc3c([nH]c4ccc(Br)cc43)oc-2c1O | active: 7.94 µM |  |
| Fc1ccc(-c2ccnc3nc(-n4cccc4)nn23)cc1 | inconclusive [inhibitor, single point] |  |
| Cc1cc(C)n2cc(COc3ccccc3)nc2n1 | inconclusive [inhibitor, partial curve] |  |
| CCN(CC)S(=O)(=O)c1ccc2c(c1)[nH]c(=S)n2CC | active: 17.8 µM |  |
| FC(F)Sc1ccc(NC(=S)NC(c2ccccc2)c2ccccc2)cc1 | inconclusive [inhibitor, single point] |  |
| Nc1c(S(=O)(=O)c2ccccc2)c2nc3ccccc3nc2n1/N=C/c1ccco1 | inconclusive [inhibitor, partial curve] |  |
| NC(=O)C1CCN(CC(=O)c2c[nH]c3ccc(F)cc23)CC1 | inconclusive [inhibitor, single point] |  |
| O=C(Oc1ccccc1)c1ccc2nccnc2c1 | inconclusive [inhibitor, partial curve] |  |
| C=CCN1C(=O)C(CC(=O)O)SC1=Nc1cccc([N+](=O)[O-])c1 (stereo unspecified) | active: 14.1 µM |  |
| CCN(CC)c1ccc(/C=N/NC(=O)c2cccc(S(=O)(=O)N3CCOCC3)c2)c(O)c1 | inconclusive [inhibitor, single point] |  |
| S=C(NCc1ccco1)Nc1ccc(Cl)cc1 | inconclusive [inhibitor, single point] |  |
| CN(C)S(=O)(=O)c1ccc(NC(=O)C2CC3C=CC2C3)cc1 (stereo unspecified) |  | inactive: -3.47% |
| O=C(COC(=O)Cn1cnc2ccccc21)Nc1ccc2c(c1)OCCO2 | active: 28.2 µM |  |
| COc1cc(NC(=O)COC(=O)c2n[nH]c3ccccc23)c(C)cc1[N+](=O)[O-] |  | inactive: 2.69% |
| CNC(=O)/C(C#N)=c1\s/c(=C/C(=O)OC)c(=O)n1-c1ccccc1 |  | inactive: -5.46% |
| Cc1ccc(NC(=O)COC(=O)CSC(=S)N2CCOCC2)cc1C | inconclusive [inhibitor, single point] |  |

| Compound | Potency | activity, negative = inhibition |
| --- | --- | --- |
| CC1CCCN(c2nc3c(c(=O)n(C)c(=O)n3C)n2Cc2ccccc2)C1 (stereo unspecified) | active: 1.78 µM |  |
| O=C(c1ccco1)N(Cc1ccccc1)c1cccc([N+](=O)[O-])c1 | active: 20 µM |  |
| Cc1cc(OCCn2ccnc2)ccc1C(C)C |  | inactive: 5.21% |
| CCCN1C(=O)/C(=C/c2ccc(C)o2)SC1=Nc1ccc(OC)cc1 | active: 3.55 µM |  |
| O=S(=O)(Nc1ccc(-n2cccc2)cc1)c1ccc(F)cc1 | active: 10 µM |  |
| O=C1COc2ccc(C(=O)CSc3nnc(Cc4cccs4)n3-c3ccccc3)cc2N1 | active: 3.16 µM |  |
| Cc1ccc2oc(=O)c3cnn(CC(=O)N4CCCCC4C)c3c2c1 (stereo unspecified) | inconclusive [inhibitor, partial curve, poor fit] |  |
| CC(=O)N(C(C)=O)c1ncc2c([nH]c3ccccc32)c1C#N | inconclusive [inhibitor, partial curve] |  |
| CCOC(=O)C1=CN(Cc2ccc(OC)cc2)C=C(C(=O)OCC)C1c1cccs1 | inconclusive [inhibitor, partial curve] |  |
| Cc1cc(C)c(NC(=O)CSc2nnc(Cc3cccn3C)n2-c2ccc(F)cc2)c(C)c1 |  | inactive: -3.79% |
| CC1CC(C)CN(CC(=O)N2CCc3[nH]c4ccccc4c3C2)C1 (stereo unspecified) | inconclusive [inhibitor, partial curve] |  |
| CCOC(=O)COc1cnc2ccccc2n1 | inconclusive [inhibitor, partial curve] |  |
| Cc1ccc(OCC(=O)Nc2cccc3nsnc23)c(C)c1 | inconclusive [inhibitor, single point] |  |
| Clc1ncnc2c1oc1ccccc12 |  | inactive: -6.28% |
| O=C(CNc1cccc2ccccc12)N/N=C/c1ccc(OC(=O)/C=C/c2ccco2)cc1 |  | inactive: 9.16% |
| CCN(CC)c1ccc(C(=O)c2cnc(/N=C/N(C)C)s2)cc1 | inconclusive [inhibitor, single point] |  |
| CCc1ccc2c(CN3CCc4cc(OC)c(OC)cc4C3)cc(=O)oc2c1 | inconclusive [inhibitor, partial curve] |  |
| O=P(O)(CCCCP(=O)(O)CCc1ccccc1)CCc1ccccc1 |  | inactive: 9.82% |
| Cn1c(CNC(=O)c2ccccc2F)nnc1SCc1nc2ccccc2c(=O)[nH]1 | inconclusive [inhibitor, single point] |  |
| O=C(c1cn(-c2ccccc2)nc1-c1ccc(Cl)s1)N1CCOCC1 | inconclusive [inhibitor, single point] |  |
| O=C(CSc1ncnc2scc(-c3ccccc3)c12)N1CCN(Cc2ccc3c(c2)OCO3)CC1 | inconclusive [inhibitor, partial curve, poor fit] |  |
| O=C(NCc1ccco1)c1cnn2c(C(F)(F)F)cc(-c3cccs3)nc12 | inconclusive [inhibitor, partial curve] |  |
| Cc1cc(C)nc(SCc2nc3nc(C)cc(C)n3c2Br)n1 | inconclusive [inhibitor, partial curve] |  |

— PubChem BioAssay AID1030 (National Center for Advancing Translational Sciences (NCATS), 2008)
